# In all, about 300,000 compounds went through this assay and about 22,000 (7.3%) were called active. Inconclusive means that the source gave no clear call. Such entries were picked first, then a sample of the others. Rule as the data show it: active = activity score below about -60%; inconclusive = mostly about -28% to -61%; inactive = positive scores.
# Test: Activators via SNCA 5'UTR binding, MLPCN (AID 1814)
# Conditions: alpha-synuclein 5'UTR reporter, activators screen; stronger effect = lower value; tested at 7.5 µM
row,Structure (SMILES),activity score
1,COc1ccccc1CCNC(=O)c1ccoc1C,active: -71.5%
2,COC(=O)c1cnc(SCC(=O)c2ccccc2)n1C,active: -93.9%
3,CC1=NN(c2ccccc2)C(=O)/C1=C/c1ccc[nH]1,active: -181%
4,COc1ccccc1NC(=S)N(Cc1ccco1)Cc1cc2cc(C)c(C)cc2[nH]c1=O,inactive: 91%
5,CN1CCN(c2ccc(NC(=O)c3ccc(Cl)cc3)cn2)CC1,inconclusive: -43.9%
6,COc1ccc(N2CSC3=C(C#N)C(c4cccs4)CC(=O)N3C2)cc1 (stereo unspecified),inconclusive: -41.9%
7,O=C(NCc1ccccc1)/C(=C/c1ccco1)NC(=O)c1ccco1,inconclusive: -23%
8,O=C1/C(=C/c2ccco2)SC(=S)N1CC1CCCO1 (stereo unspecified),inconclusive: -61.3%
9,O=C(NCC(=O)N1CCN(c2ccccc2)CC1)c1cccs1,inconclusive: -50.6%
10,COc1ccc2nc(NC(=O)c3sc4nc(C)cc(C)c4c3N)sc2c1,inconclusive: -58.8%
11,CCOc1ccc2nc(NC(=O)CSc3ccccc3)sc2c1,active: -68.9%
12,Cc1ccc(NC(=O)Nc2cccs2)nc1,active: -168%
13,CCN1CCN(/C=N/c2nc3c(s2)CCCC3)CC1,inactive: 65.6%
14,O=C(NNC1=C(C(=O)C(F)(F)F)CCC1)c1ccc(Cl)cc1,inconclusive: -46%
15,O=C(/C=C/Nc1ccc(F)cc1)c1cccs1,active: -115%
16,Nc1sc(-c2ccccc2)n[n+]1Cc1cccc2cccnc12,inactive: 53.3%
17,O=C(COc1cccnc1[N+](=O)[O-])Nc1ccc2c(c1)CCC2,inconclusive: -53.9%
18,COc1ccc(-c2nc(-c3ccccc3)no2)c(OC)c1,inactive: 68.9%
19,Cc1ccc(C2=NCCn3nc4cc([N+](=O)[O-])ccc4c32)cc1,inconclusive: -30.4%
20,CCOc1ccc(/C=C2\SC(=S)N(CCCC(=O)NCCCN3CCOCC3)C2=O)cc1,inactive: 84.4%
21,COc1ccc2oc(=O)c(C(=O)NCc3ccco3)cc2c1,inconclusive: -42.5%

row,Structure (SMILES),activity score
1,CC1(C(=O)OCC(=O)Nc2ccc3ccccc3c2)CC1(Cl)Cl (stereo unspecified),active: -78.1%
2,COC(=O)/C(=C\c1ccc2c(c1)c1ccccc1n2C)NC(=O)c1ccccc1,inconclusive: -49.6%
3,CCCCS/C(=C(/C#N)C(N)=O)c1cc2c([nH]1)CCCC2,inconclusive: -52.4%
4,CCOC(=O)c1c[nH]c2c3c(ccc2c1=O)CCCC3,inconclusive: -60.3%
5,Cc1ccc(NC(=O)CSc2nccn2Cc2ccco2)c(C)c1,inconclusive: -46.5%
6,COc1cc(OC)cc(C(=O)Nc2cccc(C(C)=O)c2)c1,inconclusive: -39.8%
7,O=C(CN1CCc2ccccc21)NCc1ccccc1Cl,inconclusive: -52.3%
8,CCC1CCCCN1S(=O)(=O)c1ccc(C(=O)Nc2nnc(-c3ccccc3Cl)o2)cc1 (stereo unspecified),inactive: 56.3%
9,COc1cccc(/C=N/Nc2nccnc2Cl)c1O,inactive: 89.6%
10,CN(C)CCCNc1c2ccccc2nc2ccccc12,inactive: 70.8%
11,CCc1c(-c2ccccc2)nc2sc3c(c2c1N)CCCC3,active: -113%
12,COc1ccc(N(CC(=O)Nc2cc(Cl)ccc2OC)S(=O)(=O)c2c(C)noc2C)cc1,inactive: 70.7%
13,CCSc1nnc2c3cc(CC)ccc3n(C)c2n1,inconclusive: -39%
14,NS(=O)(=O)c1cc(C(=O)N2CCc3ccccc32)c(Cl)cc1Cl,inconclusive: -39%
15,CCN1C(=O)/C(=C\N(C(C)=O)c2ccccc2)OC1=S,inconclusive: -59.8%
16,CCOC(=O)c1c(C)[nH]c(C(=O)CSc2nc3ccccc3o2)c1C,inconclusive: -57.2%
17,COCC(=O)n1nc(-c2ccc(Cl)cc2)nc1NCc1ccc(F)cc1,inconclusive: -60.1%
18,CCNC(=O)O/N=C(\C)c1sc(-c2ccccc2)nc1C,active: -134%
19,O=C(O)C[C@H](O)C[C@H](O)/C=C/c1c(C2CC2)nc2ccccc2c1-c1ccc(F)cc1,inactive: 104%
20,Nc1c(C(=O)NC2CCCC2)c2nc3ccccc3nc2n1N,inconclusive: -49.2%
21,O=[N+]([O-])c1ccc(-c2cnc[nH]2)cc1,inconclusive: -59.8%

row,Structure (SMILES),activity score
1,O=[N+]([O-])c1cccc(C2=NC(c3ccccc3)CO2)c1 (stereo unspecified),inconclusive: -56.9%
2,CSC1=NC(C(Cl)(Cl)Cl)N=C(c2ccc(C)cc2)N1 (stereo unspecified),inactive: 118%
3,O=C(Nc1ccc(O)c2c(=O)cc(-c3cccc(Cl)c3)oc12)c1cccc(Cl)c1,inactive: 61.4%
4,CN1CCN(C(c2ccc(Cl)cc2)c2cc(Cl)c3cccnc3c2O)CC1 (stereo unspecified),inactive: 77.1%
5,CC(=O)Nc1ccc(C(=O)N/N=C(\C)CC(=O)Nc2ccc(OCc3ccccc3)cc2)cc1,inconclusive: -47%
6,C/C(N)=C(/C#N)C(=O)COC(=O)c1cccc(O)c1,inconclusive: -28.3%
7,O=C(O)C1OC(Oc2cc3oc(-c4ccccc4)cc(=O)c3c(O)c2O)C(O)C(O)C1O (stereo unspecified),inconclusive: -43.2%
8,CCC(C)[C@@H](C(=O)Nc1ccc2c(c1)OCO2)N1Cc2ccccc2C1=O (stereo partly specified),inconclusive: -45.2%
9,Cc1[nH]nc2nc(SCC(=O)NCCC3=CCCCC3)n(-c3ccc(Br)cc3)c(=N)c12,inactive: 74.5%
10,O=C(Cn1cc(/C=C\[N+](=O)[O-])c2ccccc21)Nc1ccccc1,inconclusive: -52.7%
11,Cc1ccc(NC(=S)NNC(=S)Nc2ccc(C)cc2C)cc1,inactive: 113%
12,COc1ccc2nc(NC(=O)Cc3cccs3)sc2c1,active: -132%
13,CN1CCN(c2ccc(NC(=O)c3ccc4ccccc4c3)cc2)CC1,inactive: 85.3%
14,CCCOc1ccc(C(=O)NNC(=S)NC(=O)CC)cc1,inactive: 85.4%
15,Cc1ccc(C2C(C(=O)c3ccco3)=C(O)C(=O)N2c2ncccn2)cc1 (stereo unspecified),inconclusive: -54.3%
16,CCCCc1ccc(-c2ccc(C)cc2O)nc1,inactive: 84.4%
17,O=C(NN=C1CCCCCCC1)c1ccccn1,inconclusive: -57.3%
18,COc1ccc2c(C)c(CCC(=O)NC3CC3)c(=O)oc2c1C,inconclusive: -50.5%
19,c1ccc(CCNc2ccnc3cc4ccccc4cc23)cc1,inactive: 117%

# Source: PubChem BioAssay AID1814 (Broad Institute, 2009)
